From PubChem BioAssay AID602340 (Broad Institute, 2012)
Where “and” joins values, the source holds several entries; their conditions need not be identical. Identical values can stand only once. The campaign covered roughly 330,000 compounds. About 2,600 (0.79%) were called active. Inconclusive results, whose numbers are uncertain, are shown with a selection of clear calls.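 The calls were made as follows: active = mean ATP rescue above about 67%, or every replicate alone reaching that limit (limit read from the data, passing the limit was not always enough); inconclusive = no clear call, values can overlap the other calls; inactive = mean under the limit and some replicate under it.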

Assay: suppressors of statin myotoxicity in C2C12 myotubes, primary screen, cell-based, single point, plate reader (AID 602340);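 also: myotubes were challenged with 10 µM simvastatin during compound exposure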
Details: C2C12 myotubes + simvastatin, ATP luminescence, 48 h; at 7.49 µM; active compounds read high; scaled: DMSO 0, geranylgeraniol control 100

Structure (SMILES)	rescue of ATP level
Cc1cc(C)c(C)c(S(=O)(=O)N2CCN(CC(=O)NC(=O)NCc3ccccc3)CC2)c1C	inconclusive: 67.8%
CCOC(=O)C1C(=O)CC(C)(O)C(C(=O)OCC)C1c1ccc2c(c1)OCO2 (stereo unspecified)	inconclusive: 67.2%
C[C@@H]1CN([C@@H](C)CO)C(=O)Cc2cc(NS(=O)(=O)c3cn(C)cn3)ccc2O[C@H]1CN(C)Cc1ccc(-c2ccccc2)cc1	inconclusive: 66.9%
COc1cccc(C#Cc2cnc3c(c2)C(=O)N([C@@H](C)CO)C[C@H](C)[C@H](CN(C)C(=O)C2CCC2)O3)c1	inconclusive: 88.8%
Cc1ccc2nc3c(cc2c1)c(NS(=O)(=O)c1ccccc1)nn3CC(C)C	inconclusive: 68.2%
C[C@H](NC(=O)NC1CCCc2ccccc21)C(=O)O (stereo partly specified)	inactive: -2.89%
Cc1ccc(S(=O)(=O)Nc2ccc3c(c2)CC(=O)N([C@H](C)CO)C[C@H](C)[C@@H](CN(C)Cc2ccc(C(F)(F)F)cc2)O3)cc1	active: 115%
Cc1cccc(NC(=O)COn2nnc3ccc(S(C)(=O)=O)cc32)c1	inconclusive: 3.35%
O=C(CN1CCc2ccccc2C1)c1cccs1	inconclusive: 67.5%
O=C(COc1cccc2cccnc12)N/N=C1\SCC(=O)N1Cc1ccccc1	inconclusive: 67.2%
C[C@H](CO)N1C[C@H](C)[C@H](CN(C)C(=O)Nc2ccc(C(F)(F)F)cc2)OCCCC[C@H](C)Oc2ccc(NC(=O)c3ccccc3)cc2C1=O	active: 112%
COc1ccccc1C(=O)Nc1ccc(NC(=O)c2ccco2)cn1	inactive: -4.49%
Cc1ccc(S(=O)(=O)Nc2ccc3c(c2)CC(=O)N([C@@H](C)CO)C[C@@H](C)[C@@H](CN(C)Cc2ccc(Cl)c(Cl)c2)O3)cc1	active: 76.6%
CNC[C@@H]1Oc2ccc(NS(=O)(=O)c3ccc(C)cc3)cc2C(=O)N([C@H](C)CO)C[C@@H]1C	inactive: 6.67%
C[C@H](CO)N1C[C@H](C)[C@H](CN(C)S(=O)(=O)c2ccccc2)OCCCC[C@H](C)Oc2ccc(NS(C)(=O)=O)cc2C1=O	inconclusive: 72.4%
CC(C)C(=O)N(c1ccc2oc(=O)sc2c1)S(=O)(=O)c1cccs1	inconclusive: 69.1%
COc1ccc(C2c3[nH]c4ccccc4c3C[C@H]3C(=O)N(CC(C)C)CC(=O)N23)c(OC)c1 (stereo partly specified)	inconclusive: 27.8%
COc1cc2c3c(c1)C1(C(=O)N3C(C)(C)C=C2C)C(C#N)=C(N)Oc2cc(C)oc(=O)c21 (stereo unspecified)	active: 114%
O=c1c2cnn(-c3ccc(F)cc3)c2ncn1Cc1ccccc1	active: 158%
COc1c(Cl)cc(Cl)cc1C(=O)n1nc(C)cc1C	active: 97.6%
CCn1c(=O)n(CC)c2cc(S(=O)(=O)N3CCCCC3)c(C)cc21	inconclusive: 80.1%

Structure (SMILES)	rescue of ATP level
OC(c1ccc(F)c(F)c1)c1nc(-c2ccc3ccccc3c2)cs1 (stereo unspecified)	inconclusive: 65.8%
OCC1(Cc2cccc(F)c2)CCN(Cc2ccc3cccc(F)c3n2)CC1	inactive: -9.74%
C[C@@H]1CCCCO[C@@H](CN(C)Cc2ccc(C(F)(F)F)cc2)[C@H](C)CN([C@@H](C)CO)C(=O)c2cc(NC(=O)CCC(F)(F)F)ccc2O1	inconclusive: 93.2%
O=c1c2ccccc2n(Cc2ccc(F)cc2)c(=O)n1C1CCCC1	active: 116%
Cc1ccc(C(=O)Nc2c3c(nn2C(C)(C)C)CS(=O)(=O)C3)cc1C	inconclusive: 98.3%
Cc1nn(Cc2ccc(Cl)c(Cl)c2)c(C)c1NC(=O)c1cc(C2CC2)on1	inconclusive: 71.3%
CCOC(=O)c1cccc(S(=O)(=O)N(CCO)Cc2cc3cc(OC)c(OC)cc3[nH]c2=O)c1	inconclusive: 79.7%
CN1C(=O)c2cc(NS(=O)(=O)c3ccc(Cl)cc3)ccc2OC[C@@H]2O[C@@H](CC(=O)N3CCc4ccccc4C3)CC[C@H]21	inconclusive: 69.2%
COc1ccc(S(=O)(=O)Nc2ccc3c(c2)C(=O)N([C@@H](C)CO)C[C@@H](C)[C@@H](CN(C)C(=O)Nc2cccc4ccccc24)OCCCC[C@H](C)O3)cc1	inconclusive: 69.3%
COc1ccc(-c2coc3c(C(=O)NCC(C)C)cccc23)c(C)c1	inconclusive: 66.4%
CCOc1cccc(-c2c(C(=O)N/N=C/c3sccc3C)nnn2-c2nonc2N)c1	inactive: 35.4%
Cc1nn(C)cc1/C=N\NC(=O)c1ccc2c(c1)c(C)c(C)n2Cc1ccccc1	inconclusive: 68.9%
COc1ccc(S(=O)(=O)NC(C)C(=O)NCc2ccccn2)cc1OC (stereo unspecified)	inactive: 2.31%
O=C(/C=C/c1ccccc1Cl)NCc1ccccc1	active: 145%
C[C@@H]1CN([C@@H](C)CO)C(=O)c2cc(C#CCc3ccccc3)cnc2O[C@H]1CN(C)Cc1cccc(F)c1	inactive: -4.64%
COc1ccc(S(=O)(=O)Nc2ccc3c(c2)CC(=O)N([C@H](C)CO)C[C@@H](C)[C@@H](CN(C)Cc2ccc(Cl)c(Cl)c2)O3)cc1	inconclusive: 65.8%
COc1ccccc1CNC(=O)C[C@H]1C=C[C@H](NC(=O)CN(C)C)[C@@H](CO)O1	inactive: -4.72%
O=C1c2ccccc2C(=O)N1OCCOCCOCCBr	inactive: 7.6%
Cc1cccc(N(C(=O)CCC(=O)Nc2cccnc2)C(C(=O)NC2CCCC2)c2ccncc2)c1 (stereo unspecified)	inconclusive: 81.1%
COc1cccc(N(C(=O)c2ccco2)C(C(=O)NC2CCCC2)c2cccnc2)c1 (stereo unspecified)	inconclusive: 75.2%
COc1cccc(N2CCN(C(=O)c3cc4c(OC)c(OC)c(OC)cc4[nH]3)CC2)c1	inconclusive: 36.5%

Structure (SMILES)	rescue of ATP level
NC(=O)CSc1oc(-c2ccco2)nc1S(=O)(=O)c1ccc(Br)cc1	inconclusive: 66.5%
COc1cccc(/C=C2/Sc3ccc(C(=O)NCCN4CCCC4)cc3NC2=O)c1	inactive: 6.93%
COc1ccc(-c2cc(C(=O)NCc3ccc(Cl)cc3)no2)cc1OC	inconclusive: 71.5%
COc1ccc(CNC2CCSc3ccccc32)cc1OC (stereo unspecified)	inconclusive: 17.8%
Cc1cccc(S(=O)(=O)N(C)C[C@H]2OCc3cn(nn3)CCCC(=O)N([C@@H](C)CO)C[C@@H]2C)c1	inactive: 0.135% and inactive: 23.7% and inactive: 3%
c1ccc(CN2C3=NCCCN3c3ccccc32)cc1	active: 78.7%
O=C(NC(=S)Nc1ccc(-c2ccccc2)cc1)c1ccccc1	inactive: -63.7%
O=C(N1CCOCC1)N1CCN(S(=O)(=O)N2CCOCC2)CC1	active: 114%
C[C@@H]1CCCCO[C@H](CN(C)CC2CCCCC2)[C@@H](C)CN([C@H](C)CO)C(=O)c2cc(NC(=O)CCCN(C)C)ccc2O1	inconclusive: 67.1%
C[C@@H]1CCCCO[C@@H](CN(C)C)[C@@H](C)CN([C@@H](C)CO)C(=O)c2cc(NC(=O)CCC(F)(F)F)ccc2O1	inactive: -12.2%
C=CCn1c(NC(=O)c2ccc(Br)o2)c(S(=O)(=O)c2ccccc2)c2nc3ccccc3nc21	inconclusive: 73.8%
O=c1c2ccccc2nc(/C=C/c2ccc([N+](=O)[O-])o2)n1CCCO	inconclusive: 82.1%
CCCC(c1nnnn1Cc1ccc(OC)cc1)N1CCN(c2ccccc2)CC1 (stereo unspecified)	active: 137%
Cc1csc(NC(=O)CCC(=O)N(CC(=O)NC2CCCC2)Cc2ccco2)n1	inconclusive: 81.2%
C[C@@H]1CN([C@H](C)CO)C(=O)c2cccc(NS(=O)(=O)c3cccs3)c2O[C@@H]1CN(C)S(=O)(=O)c1cccs1	inconclusive: 81.2%
O=C(C[C@H]1CC[C@@H](NS(=O)(=O)c2ccc(F)cc2)[C@@H](CO)O1)NCc1ccncn1	inactive: -4.69%
Cc1ccc(N2C(N)=NC(N)=NC2(C)C)c(C)c1	active: 110%
C[C@H]1CN([C@@H](C)CO)C(=O)c2cc(C#Cc3ccncc3)cnc2O[C@@H]1CN(C)CC1CCCC1	inconclusive: 78.7%
COc1ccc(S(=O)(=O)Nc2ccc3c(c2)C(=O)N([C@@H](C)CO)C[C@@H](C)[C@@H](CN(C)S(=O)(=O)c2ccc(F)cc2)OCCCC[C@H](C)O3)cc1	active: 151%
COc1ccc(-c2cc3ccccc3oc2=O)cc1NC(=O)c1ccc([N+](=O)[O-])o1	inconclusive: 96.4%
O=C(Nc1ccc(F)c(Cl)c1)C1Cc2c(-c3ccco3)ccnc2O1 (stereo unspecified)	inconclusive: 88%

Structure (SMILES)	rescue of ATP level
CC(=O)C(=Nc1ccccc1Cl)NNc1ccc(Cl)cc1	active: 152%
COc1ccc([C@H]2CC(=O)C=C(c3c(OC)cccc3OC)C2)cc1	inactive: -7.43%
COc1ccc(S(=O)(=O)Nc2cc(SCC(=O)O)c(O)c3ccccc23)cc1	inconclusive: 26.8%
CNc1c(NS(=O)(=O)c2cc(Cl)ccc2OC)c(=O)oc2ccccc12	inconclusive: 82.7%
C[C@H](CO)N1C[C@H](C)[C@@H](CN(C)S(=O)(=O)c2cccs2)Oc2ccc(NC(=O)Nc3cccc4ccccc34)cc2C1=O	inconclusive: 84.1%
O=C1NCCN1C(=O)c1ccco1	inconclusive: 70.5%
COc1cc(C(=O)N2CCN(C(=O)C3CC3)CC2)cc(OC)c1OC	inactive: 2.44%
C[C@H](CO)N1C[C@H](C)[C@@H](CN(C)Cc2ccc(Cl)c(Cl)c2)Oc2ccc(NS(=O)(=O)c3cccs3)cc2CC1=O	inconclusive: 69%
C[C@H](CO)N1C[C@H](C)[C@@H](CN(C)Cc2ccc(Oc3ccccc3)cc2)Oc2c(NC(=O)Nc3cccc4ccccc34)cccc2C1=O	inconclusive: 73.2%
O=C(CSc1nc(-c2ccco2)cc(C(F)(F)F)n1)N1CCSCC1	active: 86.4%
C[C@H](CO)N1C[C@H](C)[C@@H](CN(C)Cc2ccc(Oc3ccccc3)cc2)Oc2ccc(NC(=O)C3CCCCC3)cc2CC1=O	inconclusive: 76.2%
CCOc1ccccc1C(=O)Nc1ccc2nc3n(c(=O)c2c1)CCCCC3	inactive: -46.5%
COc1ccc(Cl)cc1CC1(C)C(=O)Nc2ccc(S(=O)(=O)NC3CCCCC3)cc21 (stereo unspecified)	inconclusive: 65.3%
C[C@@H]1CCCCO[C@@H](CN(C)Cc2ccc(Cl)c(Cl)c2)[C@H](C)CN([C@@H](C)CO)C(=O)c2cc(NC(=O)Cc3ccccc3)ccc2O1	active: 106%
O=C(CSc1nnc(-c2ccncc2)n1Cc1ccco1)Nc1nc(-c2ccccc2)cs1	active: 97.5%
c1ccc(C2CNCCc3ccccc32)cc1 (stereo unspecified)	inconclusive: 66.8%
C[C@H](CO)N1C[C@H](C)[C@@H](CN(C)Cc2ccc(Oc3ccccc3)cc2)Oc2ccc(NC(=O)Cn3cnnn3)cc2CC1=O	inconclusive: 84.9%
O=[N+]([O-])c1cc(S(=O)(=O)C(F)(F)F)ccc1Sc1nc2ccccc2s1	active: 85.6%
